{"source": "PubChem BioAssay AID504832", "about": "(National Center for Advancing Translational Sciences (NCATS), 2011)", "note": "Values joined by “and” are separate entries in the source; they are usually repeats but may differ in a detail not shown here. Equal entries are not always repeated. About 18,000 (5.8%) of roughly 310,000 compounds were called active. Inconclusive results, whose numbers are uncertain, are shown with a selection of clear calls. Calls follow the shape of the dose curve; as a rule, active = well fitted inhibition curve with a large enough effect; inconclusive = small, poorly fitted or top-dose-only effect, or another doubt; inactive = no such curve, though single readings can be large or run the other way. Potencies of inconclusive entries are doubtful fits and often do not repeat. % is scaled to controls: 0 for no effect and ±100 for the full control effect; potency is read from the fitted curve at half-maximal effect; tags tell the direction and shape of the fitted curve.", "data": [{"test": "Primary qHTS for delayed death inhibitors of the malarial parasite plastid, 48 hour incubation", "settings": "P. falciparum luciferase growth in erythrocytes; series mostly up to 28.7 µM; activity change, negative = inhibition: at the top concentration", "procedure,_shortened": "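A one-generation exposure of luciferase-tagged malaria parasites in RPMI 1640/Albumax erythrocyte culture, 37 C and 5% CO2. Inhibition is inferred from decreased luminescence after adding detection reagent.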", "values": [{"smiles": "CCC(=NCCC(c1ccccc1)c1ccccc1)c1c(O)n(C)c(=O)n(C)c1=O", "activity change, negative = inhibition": "inactive: 0.599%"}, {"smiles": "Cc1ccc(CSCC2Nc3ccc(C(=O)N4CCN(c5cccc(C)c5)C(C)C4)cc3NC2=O)cc1", "note": "(stereo not drawn)", "Potency": "inconclusive: 9.28 µM [inhibitor, partial curve]"}, {"smiles": "CN(C)c1ccc(/C=N/N=C2/NC(=O)/C(=C/c3ccc([N+](=O)[O-])cc3)S2)cc1", "activity change, negative = inhibition": "inactive: 11.8%"}, {"smiles": "Cc1ccc(NC(=O)CNCCCN2CCOCC2)cc1S(=O)(=O)N1CCCCC1", "Potency": "inconclusive: 2.62 µM [inhibitor, single point]"}, {"smiles": "Cc1cccc(NC(=O)c2cc(-c3ccccn3)nc3ccccc23)c1C", "Potency": "inconclusive: 16.5 µM [inhibitor, single point]"}, {"smiles": "Cc1ccccc1OCc1nc2ccccc2c(=O)n1/N=C/c1cn[nH]c1-c1ccc(Br)cc1", "Potency": "inconclusive: 18.5 µM [inhibitor, single point]"}, {"smiles": "OCc1nc2nc(Cl)c(Cl)nc2[nH]1", "activity change, negative = inhibition": "inactive: 104%"}, {"smiles": "Cc1cc(C)cc(N(C(C)C(=O)N2CCCC2)S(C)(=O)=O)c1", "note": "(stereo not drawn)", "activity change, negative = inhibition": "inactive: -0.715%"}, {"smiles": "Cc1ccc(C)c(OCC(=O)Nc2ccccc2N2CCCC2)c1", "Potency": "inconclusive: 16.5 µM [inhibitor, single point]"}, {"smiles": "COc1ccc(C(=O)c2c(C)oc3cc([N+](=O)[O-])c(O)c([N+](=O)[O-])c23)cc1", "Potency": "inconclusive: 9.28 µM [inhibitor, partial curve]"}, {"smiles": "O=C(Nc1ccccc1)c1ccc(Nc2c([N+](=O)[O-])cc([N+](=O)[O-])c3ccccc23)cc1", "Potency": "inconclusive: 11.7 µM [inhibitor, partial curve, poor fit]"}, {"smiles": "O=C(Nc1ccc([N+](=O)[O-])cc1)C1CC1(c1ccccc1)c1ccccc1", "note": "(stereo not drawn)", "Potency": "active: 11.7 µM"}, {"smiles": "O=C(Nc1ccccc1C(F)(F)F)C(O)(c1ccccc1)C1CCCCC1", "note": "(stereo not drawn)", "Potency": "inconclusive: 10.4 µM [inhibitor, single point]"}, {"smiles": "N#CCCn1cc(C(=O)CN2C(=O)NC3(CCCCCC3)C2=O)c2ccccc21", "Potency": "inconclusive: 10.4 µM [inhibitor, single point]"}, {"smiles": "O=C(NCCN1C(=O)S/C(=C\\c2ccccc2F)C1=O)C1CC(=O)N(Cc2ccccc2)C1", "note": "(stereo not drawn)", "Potency": "inconclusive: 13.1 µM [inhibitor, single point]"}, {"smiles": "O=[N+]([O-])c1ccc(C(O)C(CO)NC(=S)Nc2ccccc2)cc1", "note": "(stereo not drawn)", "Potency": "inconclusive: 13.1 µM [inhibitor, single point]"}, {"smiles": "COc1ccccc1Nc1nnc(SCC(=O)NC2CCCC2)s1", "Potency": "active: 11.7 µM"}, {"smiles": "COc1ccc(-c2c(-c3ccc(O)cc3O)n[nH]c2C(F)(F)F)cc1", "Potency": "inconclusive: 18.5 µM [inhibitor, single point]"}, {"smiles": "COc1cccc(CN2c3ccc(Br)cc3C(=O)CS2(=O)=O)c1", "Potency": "active: 9.28 µM"}, {"smiles": "CN(C)c1cc(-c2ccc([N+](=O)[O-])cc2)oc(=O)c1Cl", "Potency": "inconclusive: 1.04 µM [inhibitor, partial curve, poor fit]"}, {"smiles": "N/C(=N\\OC(=O)c1ccccc1F)c1cccc([N+](=O)[O-])c1", "activity change, negative = inhibition": "inactive: 146%"}, {"smiles": "CCN(CCS(=O)(=O)c1ccc(Cl)cc1)C(=O)Nc1ccc(Cl)cc1", "Potency": "inconclusive: 18.5 µM [inhibitor, single point]"}, {"smiles": "O=C(NCC(c1ccco1)N1CCCC1)c1cccc(S(=O)(=O)N2CCOCC2)c1", "note": "(stereo not drawn)", "Potency": "inconclusive: 10.4 µM [inhibitor, single point]"}, {"smiles": "CCOC(=O)C1CCN(CCC(=O)Nc2cccc(Cl)c2)CC1", "Potency": "inconclusive: 18.5 µM [inhibitor, single point]"}, {"smiles": "Cc1c(C(=O)Nc2ccc(S(=O)(=O)N(C)C3CCN(C)CC3)cc2)oc2ccccc12", "Potency": "active: 4.65 µM"}, {"smiles": "COC(=O)c1c(-c2ccc(C)cc2)csc1NC(=O)c1c(-c2ccccc2)noc1C", "Potency": "inconclusive: 18.5 µM [inhibitor, single point]"}, {"smiles": "CCOC(=O)c1cc(NC(=O)Cc2ccc(S(=O)(=O)N3CCOCC3)s2)cc(C(=O)OCC)c1", "Potency": "active: 10.4 µM"}, {"smiles": "O=C(c1ccc(F)cc1)N1CCN(c2ccccn2)CC1", "activity change, negative = inhibition": "inactive: 22.2%"}, {"smiles": "CC(C)(C)N1C(=O)[C@H]2[C@@H](c3ccc(Br)cc3)N3C(=O)N(c4cccc(F)c4)C(=O)[C@@]3(Cc3ccccc3)[C@H]2C1=O", "Potency": "active: 5.22 µM"}, {"smiles": "CC1CN(S(=O)(=O)c2cccc(-c3cn4cccnc4n3)c2)CC(C)O1", "note": "(stereo not drawn)", "Potency": "active: 7.38 µM"}, {"smiles": "CC(=O)C1=C(C)Nc2ncnn2C1c1ccccc1Cl", "note": "(stereo not drawn)", "activity change, negative = inhibition": "inactive: 11.9%"}, {"smiles": "Cc1c(/C=C/C(=O)c2ccc(C(C)C)cc2)cnn1C", "activity change, negative = inhibition": "inactive: 2.97%"}, {"smiles": "Cc1ccc(N(Cc2ccc(C(=O)NN=C3CCN(C)CC3)cc2)S(C)(=O)=O)cc1C", "Potency": "inconclusive: 13.1 µM [inhibitor, partial curve, poor fit]"}, {"smiles": "Cc1ccc(S(=O)(=O)N2CCCCC2)cc1NC(=O)COC(=O)c1c(F)cccc1F", "Potency": "inconclusive: 18.5 µM [inhibitor, single point]"}, {"smiles": "Cc1ccc(OCC(=O)NNC(=O)c2cccnc2)cc1", "activity change, negative = inhibition": "inactive: -3.3%"}, {"smiles": "Cc1ccc(NC(=O)c2ccc(Nc3c([N+](=O)[O-])cc([N+](=O)[O-])cc3[N+](=O)[O-])cc2)cc1", "Potency": "active: 5.22 µM"}, {"smiles": "CCn1c(SCC(=O)NCc2ccc3c(c2)OCO3)nnc1-c1c[nH]c2ccccc12", "Potency": "inconclusive: 18.5 µM [inhibitor, single point]"}, {"smiles": "Cc1cccc(NC(=O)CNC(=O)c2cccc(S(=O)(=O)NCc3cccs3)c2)c1C", "Potency": "inconclusive: 10.4 µM [inhibitor, single point]"}, {"smiles": "O=C(CSc1nc(=O)n2ccccc2n1)NC1CCCCC1", "activity change, negative = inhibition": "inactive: 20.9%"}, {"smiles": "CCCCCCc1c(C)c2ccc(OCC(=O)N3CCC[C@H]3C(=O)O)c(C)c2oc1=O", "Potency": "inconclusive: 7.38 µM [inhibitor, partial curve, poor fit]"}, {"smiles": "CCCCNC(=O)c1cn(C)c2ccc(S(=O)(=O)N3CCCC3)cc2c1=O", "Potency": "inconclusive: 10.4 µM [inhibitor, single point]"}, {"smiles": "COc1ccccc1NC(=O)CNc1ccc(F)c(Cl)c1", "Potency": "inconclusive: 18.5 µM [inhibitor, partial curve, poor fit]"}, {"smiles": "COC(=O)c1ccc(C2Nc3cccc4cccc(c34)N2)cc1", "Potency": "inconclusive: 14.7 µM [inhibitor, single point]"}, {"smiles": "CCOC(=O)[C@H]1[C@H]2COc3ccc(Cl)cc3[C@@H]2N2C(=O)CN(Cc3ccc(C)cc3)C(=O)[C@@]12C", "Potency": "active: 11.7 µM"}, {"smiles": "Cc1ccc(S(=O)(=O)N2CCC(NC(=O)c3cccc(C)c3)CC2)cc1", "activity change, negative = inhibition": "inactive: -0.865%"}, {"smiles": "Cc1cccc(NC(=O)c2cccc(S(=O)(=O)N3CCCCC3)c2)c1", "Potency": "inconclusive: 1.31 µM [inhibitor, partial curve, poor fit]"}, {"smiles": "NS(=O)(=O)c1cccc(NC(=O)COC(=O)CCc2ccccc2)c1", "activity change, negative = inhibition": "inactive: -22.2%"}, {"smiles": "Cc1cc(C)c[n+](C(C)C(=O)c2ccc(Cl)cc2)c1", "note": "(stereo not drawn)", "Potency": "inconclusive: 9.28 µM [inhibitor, single point]"}, {"smiles": "Cc1cc(=O)c2ccc(Cl)cc2[nH]1", "Potency": "inconclusive: 10.4 µM [inhibitor, partial curve]"}, {"smiles": "O=C(Nc1ccc2ccccc2c1)C(c1ccccc1)C1CCCC1", "note": "(stereo not drawn)", "Potency": "active: 8.28 µM"}, {"smiles": "O=C(CC1Sc2ccccc2NC1=O)OCc1cc(=O)oc2cc(O)ccc12", "note": "(stereo not drawn)", "activity change, negative = inhibition": "inactive: -12.2%"}, {"smiles": "O=C(NC(=S)Nc1ccc(Cc2ccncc2)cc1)c1ccccc1F", "Potency": "inconclusive: 18.5 µM [inhibitor, single point]"}, {"smiles": "COc1cc(NC(C)CCCN)c2ncccc2c1", "note": "(stereo not drawn)", "Potency": "active: 0.415 µM"}, {"smiles": "CCc1noc(C)c1C(=O)N1CCN(S(=O)(=O)c2ccc(Cl)cc2)CC1", "Potency": "inconclusive: 16.5 µM [inhibitor, single point]"}, {"smiles": "CCCCC1(COC(=O)CCC(=O)O)C(=O)N(c2ccccc2)N(c2ccccc2)C1=O", "Potency": "inactive and inconclusive: 9.28 µM [inhibitor, single point]"}, {"smiles": "CCSc1ccc2nnc(-c3cccs3)n2n1", "Potency": "inconclusive: 0.465 µM [inhibitor, partial curve, poor fit]"}, {"smiles": "CCN(CC)C(=O)c1[nH]cnc1C(=O)N[C@@H](CCCCNC(=O)OC(C)(C)C)C(=O)OC(C)(C)C", "Potency": "inconclusive: 10.4 µM [inhibitor, single point]"}, {"smiles": "CCC(C)NS(=O)(=O)c1ccc(OCC(=O)NCc2ccc(OC)cc2)cc1", "note": "(stereo not drawn)", "Potency": "inconclusive: 2.94 µM [inhibitor, full curve]"}, {"smiles": "O=C(CCN1CCCC1)Nc1ccc(Br)cc1", "activity change, negative = inhibition": "inactive: 0.741%"}, {"smiles": "Cc1ccc(F)cc1NC(=O)N1CCCN(c2ccc(C(F)(F)F)cn2)CC1", "Potency": "inconclusive: 11.7 µM [inhibitor, single point]"}, {"smiles": "O=C1CC(=O)Nc2cc(S(=O)(=O)N3CCN(c4cccc(C(F)(F)F)c4)CC3)ccc2N1", "Potency": "inconclusive: 10.4 µM [inhibitor, single point]"}, {"smiles": "CCOc1ccccc1N1CCN(C(=O)Nc2cccc(Cl)c2)CC1", "Potency": "inconclusive: 11.7 µM [inhibitor, single point]"}, {"smiles": "COc1ccc(OC)c(NC(=O)COc2ccc(Br)cc2)c1", "activity change, negative = inhibition": "inactive: -1.28%"}, {"smiles": "CCn1c(Oc2ccccc2)nc2c1c(=O)n(C)c(=O)n2C", "activity change, negative = inhibition": "inactive: 30.5%"}, {"smiles": "COc1ccc(C(=O)c2c3ccc(OC)cc3[n+]([O-])n2CCCC(N)=O)cc1", "Potency": "inconclusive: 0.37 µM [inhibitor, partial curve, poor fit]"}, {"smiles": "CCSc1nc2c(c(=O)[nH]1)C(c1cccnc1)C(C(=O)OC)=C(C)N2", "note": "(stereo not drawn)", "activity change, negative = inhibition": "inactive: -9.37%"}, {"smiles": "COc1ccc(CCNC(=O)COC(=O)c2cc(=O)c3ccccc3o2)cc1", "Potency": "inconclusive: 18.5 µM [inhibitor, partial curve, poor fit]"}, {"smiles": "CC(=O)c1c(C)[nH]c(C(=O)CN2C(=O)NC(CCc3ccccc3)C2=O)c1C", "note": "(stereo not drawn)", "Potency": "inconclusive: 1.31 µM [inhibitor, partial curve, poor fit]"}]}]}
